# Results published in a collection of fitness landscapes (doi:10.1016/j.celrep.2020.107928).
# In all, about 81,000 sequences were measured (“one-hybrid fitness for binding parS DNA”: median about -0.17, highest 2% from about 0.51 on). Some of the results follow.
# B1: Caulobacter ParB omega fusion; a variant is named by its letters at X, in order, B8GW30 (parent)
# chain: MESVVVGEPGMSEGRRGLGRGLSALLGEVDAAPAQAPGEQLGGSREAPIEILQRNPDQPRRTFREEDLEDLSNSIREKGVLQPILVRPSPDTAGEYQIVAGERAWRAAQRAGLKTVPIMVRELDDLAVLEIGIIENVQRADLNVLEEALSYKVLMEKFERTQENIAQTIGKSXSHVANXMRLLXLPDEVQSYLVSGELTAXHARAIAAAADPVALAKQIIEGGLSVRETEALARKAPNLSAGKSKGGRPPRVKDTDTQALESDLSSVLGLDVSIDHRGSTGTLTITYATLEQLDDLCNRLTRGI
# Variants of: B1
# Assay: one-hybrid fitness for binding parS DNA (scaled: cognate 1, non-cognate 0); higher = stronger binding
# Settings: with parS DNA site
# Method in brief: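 Caulobacter ParB libraries with four specificity codons randomised were screened by bacterial one-hybrid selection in the E. coli USO strain, using a HIS3 reporter whose site lies 19 bp from the promoter. Selection ran for 48 hours at 37°C on M9 lacking histidine, with 0.1 mM IPTG and 5 mM 3-AT. Plasmids were Illumina-sequenced before and after selection, three replicate libraries were pooled, and variants with under 10 reads were dropped. Fitness is the log change in each variant's read ratio to wild type, rescaled against the cognate and non-cognate sites.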
row,Variant,one-hybrid fitness for binding parS DNA
1,GGGG,≤ 0.2
2,MEKT,≤ 0.2
3,YLTV,≤ 0.2
4,GLYV,≤ 0.2
5,RLKE,≤ 0.2
6,DRFA,≤ 0.2
7,WQAH,≤ 0.2
8,PLTA,≤ 0.2
9,QFIW,≤ 0.2
10,FHRM,≤ 0.2
11,KIET,≤ 0.2
12,APRM,≤ 0.2
13,HYTS,≤ 0.2
14,ARNG,≤ 0.2
15,PPCI,≤ 0.2
16,NETT,≤ 0.2
17,ALTP,≤ 0.2
18,FITS,≤ 0.2
19,TECR,≤ 0.2
20,ALTK,≤ 0.2
21,SCMR,≤ 0.2
22,MGTI,≤ 0.2
23,RLMF,0.246
24,NCMT,≤ 0.2
25,GDSS,≤ 0.2

row,Variant,one-hybrid fitness for binding parS DNA
1,HPPF,≤ 0.2
2,YEWS,≤ 0.2
3,LKSC,≤ 0.2
4,TRFM,≤ 0.2
5,VAWR,≤ 0.2
6,LPIL,≤ 0.2
7,SWIV,≤ 0.2
8,TMAP,≤ 0.2
9,LDTA,≤ 0.2
10,NDRS,≤ 0.2
11,CEPM,≤ 0.2
12,RHCT,0.766
13,VRNN,≤ 0.2
14,LYTR,≤ 0.2
15,PTNY,≤ 0.2
16,GEWK,≤ 0.2
17,QHVQ,≤ 0.2
18,PGAG,≤ 0.2
19,YAWS,≤ 0.2
20,GWGC,≤ 0.2
21,PGRY,≤ 0.2
22,RRVG,0.836
23,TFHS,≤ 0.2
24,VLWR,≤ 0.2
25,AVDD,≤ 0.2

row,Variant,one-hybrid fitness for binding parS DNA
1,RLKG,0.945
2,TWDT,≤ 0.2
3,SHTV,≤ 0.2
4,QHTY,≤ 0.2
5,KSSK,≤ 0.2
6,GARY,≤ 0.2
7,RVIS,0.981
8,ICHR,≤ 0.2
9,YPKC,≤ 0.2
10,QDYR,≤ 0.2
11,MGHA,≤ 0.2
12,TNMT,≤ 0.2
13,RQVW,≤ 0.2
14,TQTI,≤ 0.2
15,NSWL,≤ 0.2
16,SQHR,≤ 0.2
17,NQGT,≤ 0.2
18,QILN,≤ 0.2
19,ETNS,≤ 0.2
20,WQSF,≤ 0.2
21,IRTV,≤ 0.2
22,REKT,0.369
23,GTYV,≤ 0.2
24,RLKW,0.39
25,GNGR,≤ 0.2

row,Variant,one-hybrid fitness for binding parS DNA
1,VKPH,≤ 0.2
2,EDPN,≤ 0.2
3,RCCE,0.223
4,MHTW,≤ 0.2
5,SSHW,≤ 0.2
6,LHTW,≤ 0.2
7,EKRT,≤ 0.2
8,QYHR,≤ 0.2
9,LMPR,≤ 0.2
10,MRCI,≤ 0.2
11,KFSG,≤ 0.2
12,WPEH,≤ 0.2
13,SNSA,≤ 0.2
14,RGMY,≤ 0.2
15,AFLT,≤ 0.2
16,KNES,≤ 0.2
17,EVHV,≤ 0.2
18,GYWM,≤ 0.2
19,HKYS,≤ 0.2
20,EPSP,≤ 0.2
21,NRKK,≤ 0.2
22,RWSN,0.318
23,PIGL,≤ 0.2
24,ECLT,≤ 0.2
25,HFLS,≤ 0.2

row,Variant,one-hybrid fitness for binding parS DNA
1,LTIY,≤ 0.2
2,SCTG,≤ 0.2
3,VCEG,≤ 0.2
4,RSRQ,≤ 0.2
5,KMRT,≤ 0.2
6,NQLC,≤ 0.2
7,PYVA,≤ 0.2
8,LETS,≤ 0.2
9,GANG,≤ 0.2
10,RQIS,0.87
11,LGAV,≤ 0.2
12,IDAS,≤ 0.2
13,WHRH,≤ 0.2
14,YGPC,≤ 0.2
15,TSLH,≤ 0.2
16,PQFA,≤ 0.2
17,PQDL,≤ 0.2
18,NIFG,≤ 0.2
19,FTSL,≤ 0.2
20,TYVN,≤ 0.2
21,NILS,≤ 0.2
22,TGYI,≤ 0.2
23,PRYF,≤ 0.2
24,CILG,≤ 0.2
25,RNRR,≤ 0.2

row,Variant,one-hybrid fitness for binding parS DNA
1,RGMD,≤ 0.2
2,MRQT,≤ 0.2
3,NYDR,≤ 0.2
4,PKSG,≤ 0.2
5,RMFC,0.966
6,VQMM,≤ 0.2
7,VCLI,≤ 0.2
8,TMAG,≤ 0.2
9,PKRN,≤ 0.2
10,GCDC,≤ 0.2
11,IQSR,≤ 0.2
12,GGTA,≤ 0.2
13,LWKN,≤ 0.2
14,IRMS,≤ 0.2
15,ILIH,≤ 0.2
16,EWDA,≤ 0.2
17,HQRC,≤ 0.2
18,KEND,≤ 0.2
19,TFHG,≤ 0.2
20,FPHS,≤ 0.2
21,DLSL,≤ 0.2
22,WEYM,≤ 0.2
23,VATY,≤ 0.2
24,NVTP,≤ 0.2
25,TACL,≤ 0.2

row,Variant,one-hybrid fitness for binding parS DNA
1,YDCT,≤ 0.2
2,QKCC,≤ 0.2
3,YWLT,≤ 0.2
4,RRLD,≤ 0.2
5,FGPF,≤ 0.2
6,TVGW,≤ 0.2
7,GLWR,≤ 0.2
8,QFTR,≤ 0.2
9,KPPA,≤ 0.2
10,LRMG,≤ 0.2
11,YGSP,≤ 0.2
12,TPVQ,≤ 0.2
13,SYSK,≤ 0.2
14,ASPA,≤ 0.2
15,GFST,≤ 0.2
16,QQSY,≤ 0.2
17,TSAP,≤ 0.2
18,DIPS,≤ 0.2
19,NVLP,≤ 0.2
20,WVPI,≤ 0.2
21,WPAR,≤ 0.2
22,AFTY,≤ 0.2
23,LYNE,≤ 0.2
24,RLYV,≤ 0.2
25,TGRL,≤ 0.2

row,Variant,one-hybrid fitness for binding parS DNA
1,NSSL,≤ 0.2
2,GRQF,≤ 0.2
3,YHSR,≤ 0.2
4,QADH,≤ 0.2
5,FKKC,≤ 0.2
6,DTTS,≤ 0.2
7,DNDR,≤ 0.2
8,FVHG,≤ 0.2
9,MYKA,≤ 0.2
10,RRFS,0.743
11,QLCR,≤ 0.2
12,AWWV,≤ 0.2
13,TELA,≤ 0.2
14,TPIE,≤ 0.2
15,GTGG,≤ 0.2
16,RCMN,0.448
17,NSPS,≤ 0.2
18,NAMD,≤ 0.2
19,QIHD,≤ 0.2
20,WDSG,≤ 0.2
